Experimental: Each floating epidermis was stretched essentially flat.
where V is the potential applied by the galvanostat and I is the electric current, 126 microamps. The drug flux was determined by periodic sampling of the solution in the receptor compartment 46.
Aqueous metoclopramide HCl (an anti-emetic drug salt) solutions having a concentration of about 100 mg/ml were placed in the donor compartment. The pH in the donor compartment was not adjusted but remained naturally at about 5.0 to 5.5 throughout the experiments. In an aqueous solution, metoclopramide HCl forms a positively charged drug ion and the electrotransport enhancers utilized in this experiment were representative of the following different categories of surfactants:
Each surfactant was added to a final concentration of 10 mM (except for dodecylpyrrolidone which was added to a final concentration of 100 mM) to the donor solutions for comparative purposes. The system was maintained at about 32° C. by means of a HAAKE Model D1 heating block/water bath. A constant electric current of 126 μA, ie, 100 μA/cm^2, was applied with the galvanostat across the anode 48 and cathode 50 throughout the entire procedure, and the cell voltage was monitored over the entire time and then averaged.
Samples were automatically taken from the receptor compartment every one to two hours, except for overnight periods, with an autosampler (ISCO Model 2230 Lincoln City, Nebr.) and a metering pump. The metoclopramide concentration in the receptor compartment was determined by light absorption at 310 nm wavelength, using a standard curve of concentration v. absorption. The absorption measurements were obtained with a 8452A UV/vis spectrophotometer (Hewlett-Packard, Palo Alto, Calif.). Three cells were typically used for testing each of the electrotransport enhancer compositions to minimize error, and tissue from the same donor was used in the three cells, two of the cells having the selected electrotransport enhancer in the donor compartment, and the third cell being a control cell which contained no electrotransport enhancer.
Generally, the flux and voltage measurements were taken at or after about 5 hours, at which time these levels achieved a steady state.
The normalized mass flux and voltage values obtained in the presence of each one of the electrotransport enhancers for the steady state flux of metoclopramide are shown in Table 1. That is each value obtained in the presence of an enhancer is divided by the control value. Thus, the control value for the normalized flux and cell voltage are both 1, and the normalized values in the presence of an enhancer deviate from this value as they influence the resistivity of the skin and/or metoclopramide flux through the skin. […] .

Row | Compound | effect on metoclopramide mass flux (in words)
1 | polyethylene glycol di-laurate [PEG-4 Dilaurate, reference compound] | none of these enhanced the mass flux
2 | polyethylene glycol monolaurate [PEG-4 monolaurate, reference compound] | none of these enhanced the mass flux
3 | CCCCCCCCCCCCOC(=O)C(C)O (stereo not drawn) [Lauryl lactate, reference compound] | none of these enhanced the mass flux
4 | polyoxyethylene(23) lauryl ether [BRIJ 35, reference compound] | none of these enhanced the mass flux
5 | lauramphocarboxy propionate [Lauramphocarboxypropionate, reference compound] | did not appear to affect
6 | Sorbitan monolaurate [reference compound] | fail to have a significant effect

— patent publication US5668170A, “Composition and method enhancing transdermal electrotransport agent delivery” (ALZA Corporation, priority 1996, dated 1997)
